Reference: the supplement of paper PMC10369915
This is one part of the list. No stated cut-off is given here; in the data, active = 3.2 or more and inactive = the rest. Only a few entries rise above the background.

How the values were obtained:
Assay in all cases: enrichment score (SH2-bound / input frequency) (ratio); bacterial display of known human phosphotyrosine sites (pTyr-Var adds point mutants) read by sequencing; higher = stronger binding; tyrosines were phosphorylated by kinases first
Conditions in all cases: peptide library: pTyr-Var
SHP2 C-SH2 domain E139D = biological target: SHP2 C-SH2 domain E139D
[1] = biological target: SHP2 C-SH2 domain wild-type
SHP2 N-SH2 domain L43F = biological target: SHP2 N-SH2 domain L43F
SHP2 N-SH2 domain T42A = biological target: SHP2 N-SH2 domain T42A
SHP2 N-SH2 domain T52S = biological target: SHP2 N-SH2 domain T52S
[2] = biological target: SHP2 N-SH2 domain wild-type

Measured: enrichment score
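Further: displayed peptides selected on beads carrying the immobilized SH2 domain, with library peptides lacking any tyrosine serving as negative controls.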

AELVRYYMEHH [PTPN11_Y80_Q79R]
inactive: SHP2 C-SH2 domain E139D 1.15 | [1] 1.21 | SHP2 N-SH2 domain L43F 1.38 | SHP2 N-SH2 domain T42A 0.932 | SHP2 N-SH2 domain T52S 1.13 | [2] 0.972

AELVQYFMEHH [PTPN11_Y80_YF]
inactive: SHP2 C-SH2 domain E139D 1.24 | [1] 1.13 | SHP2 N-SH2 domain L43F 1.23 | SHP2 N-SH2 domain T42A 1.26 | SHP2 N-SH2 domain T52S 1.49 | [2] 1.19

GPQGVYSNKLV [PTPN14_Y506]
inactive: SHP2 C-SH2 domain E139D 0.731 | [1] 0.456 | SHP2 N-SH2 domain L43F 0.509 | SHP2 N-SH2 domain T42A 0.448 | SHP2 N-SH2 domain T52S 0.416 | [2] 0.453

HKGASYVFRLS [PTPRD_Y891]
inactive: SHP2 C-SH2 domain E139D 2.56 | [1] 2.46 | SHP2 N-SH2 domain L43F 2.61 | SHP2 N-SH2 domain T42A 1.84 | SHP2 N-SH2 domain T52S 2.34 | [2] 2.34

RGFRVYFTPDS [PTPRF_Y450_YF]
inactive: SHP2 C-SH2 domain E139D 2.9 | [1] 2.55 | SHP2 N-SH2 domain L43F 2.41 | SHP2 N-SH2 domain T42A 2.01 | SHP2 N-SH2 domain T52S 2.56 | [2] 2.02

GSERRYSREGG [PTPRN2_Y139]
inactive: SHP2 C-SH2 domain E139D 0.27 | [1] 0.359 | SHP2 N-SH2 domain L43F 0.382 | SHP2 N-SH2 domain T42A 0.381 | SHP2 N-SH2 domain T52S 0.487 | [2] 0.331

AALSAYAPQRP [PTPRN2_Y249_A251P]
inactive: SHP2 C-SH2 domain E139D 0.704 | [1] 0.654 | SHP2 N-SH2 domain L43F 0.72 | SHP2 N-SH2 domain T42A 0.761 | SHP2 N-SH2 domain T52S 0.758 | [2] 1.05

CLMILYRLKER [PTPRR_Y249]
inactive: SHP2 C-SH2 domain E139D 2.26 | [1] 1.82 | SHP2 N-SH2 domain L43F 2.08 | SHP2 N-SH2 domain T42A 1.84 | SHP2 N-SH2 domain T52S 2.24 | [2] 1.86

RPQDGFRIVQH [PTPRT_Y1329_Y1329F]
inactive: SHP2 C-SH2 domain E139D 0.91 | [1] 0.704 | SHP2 N-SH2 domain L43F 0.875 | SHP2 N-SH2 domain T42A 0.648 | SHP2 N-SH2 domain T52S 0.607 | [2] 0.966

WEPFGFAVTRC [PTPRT_Y412_Y412F]
inactive: SHP2 C-SH2 domain E139D 0.732 | [1] 0.783 | SHP2 N-SH2 domain L43F 0.561 | SHP2 N-SH2 domain T42A 0.502 | SHP2 N-SH2 domain T52S 0.465 | [2] 1.1
